# Source: PMC10668032
# Some of the results follow. At the low end of the ranking, values are background and their order means little.
# Biological target: SIX1 homeodomain (reference allele) (UniProt Q15475)
# Assay: universal protein binding microarray
# Details: Universal all-10-mer PBM (8x60K, AMADID 030236), 300 nM GST-tagged protein, Alexa Fluor 488 anti-GST; buffer, salt, pH and temperature not stated; high values mean tight binding; most listed sequences are background and not binding sites; double strand, one strand shown
row,Sequence,binding signal
1,ATCATCGG,0.365 E-score
2,ACGGCTTC,-0.158 E-score
3,CGCTCTCC,-0.0131 E-score
4,AGGACAAG,-0.118 E-score
5,CGCCATAG,0.0355 E-score
6,AGAGCACT,0.0687 E-score
7,CTTACGGC,-0.249 E-score
8,CGCATCAC,-0.0152 E-score
9,CTGTTCCA,-0.259 E-score
10,AGATTGGG,0.0831 E-score
11,AACGCTAT,0.0497 E-score
12,CGTCACTC,-0.267 E-score
13,ACATAGTG,0.0165 E-score
14,GTTGAATA,0.0184 E-score
15,AAAAGCCG,-0.0824 E-score
16,GCTCGCCA,-0.202 E-score
17,GATTAGAC,0.0257 E-score
18,AGGGAACT,-0.192 E-score
19,AGACAGAG,-0.0358 E-score
20,GCGACACA,-0.0204 E-score
21,CGAGCCAC,-0.0513 E-score
22,CCGGATAG,0.361 E-score
23,AGTCGTCC,-0.107 E-score
24,CGTCCGCC,-0.105 E-score
25,GCCGAAAA,-0.236 E-score

row,Sequence,binding signal
1,AGAACTCG,-0.248 E-score
2,AGACCAAC,-0.0455 E-score
3,CCGCCGAG,0.152 E-score
4,CGGAGGTA,0.0474 E-score
5,AGTAGGTG,0.0419 E-score
6,GCTGCGCC,-0.249 E-score
7,AAATCTCG,-0.215 E-score
8,TCATCGAA,-0.0315 E-score
9,GACTATCA,0.25 E-score
10,AGCAACTC,-0.172 E-score
11,CTGCTAGA,-0.038 E-score
12,GATATCGC,0.468 E-score
13,GTCTACAA,-0.185 E-score
14,CAACGCGC,-0.0748 E-score
15,AACATCCA,-0.017 E-score
16,CTAACTGA,0.0348 E-score
17,ACAGTAGA,0.107 E-score
18,GAGTCCCC,-0.0527 E-score
19,CTGCGGTC,-0.179 E-score
20,AAAGCCCG,-0.218 E-score
21,ACACAGAA,-0.149 E-score
22,AACCGCAT,0.0383 E-score
23,GAGCCGGC,-0.0993 E-score
24,GGTGGTGA,-0.0498 E-score
25,CGATGGAG,0.167 E-score

row,Sequence,binding signal
1,TAGTAAGA,-0.0267 E-score
2,GATTTGCA,-0.222 E-score
3,CAGTGCGA,-0.0319 E-score
4,AGGTAATC,0.0207 E-score
5,GTATGTGA,-0.0503 E-score
6,ATTGGATG,0.0435 E-score
7,AGGTACTA,-0.00237 E-score
8,AATTATAG,-0.0672 E-score
9,GGCGTCCA,-0.215 E-score
10,ATAGACGC,0.0699 E-score
11,AAACAGGT,-0.146 E-score
12,ACCTCCGC,0.0827 E-score
13,ACAGTACA,-0.0586 E-score
14,ACACCCCG,0.353 E-score
15,AGCGCTTG,-0.0929 E-score
16,CGAATCTA,-0.128 E-score
17,ACCTAGCC,-0.115 E-score
18,TACGTCTA,0.106 E-score
19,CCATGGCC,-0.281 E-score
20,ACCTCAAA,-0.119 E-score
21,CCGCCCTC,0.011 E-score
22,CTGTTTCA,-0.194 E-score
23,ATTAAGGA,0.0208 E-score
24,AGTTGAGC,-0.0713 E-score
25,AGGCTTCC,-0.0657 E-score

row,Sequence,binding signal
1,TCTTCCCA,-0.201 E-score
2,ATGCGAAG,-0.115 E-score
3,AGCGAAAA,-0.206 E-score
4,CCAGCTAA,-0.182 E-score
5,AATCCTAA,-0.0273 E-score
6,AAGCAGTC,-0.185 E-score
7,GTCACGCA,-0.00944 E-score
8,AAGGCCCG,-0.257 E-score
9,CTGTTATA,0.00781 E-score
10,AGTACTAG,-0.182 E-score
11,ATCTGATG,0.156 E-score
12,TGTATTAA,0.275 E-score
13,AGGTTTTC,-0.162 E-score
14,ATGTGTAG,-0.0862 E-score
15,AAGTATAA,0.184 E-score
16,ATGGGTGC,-0.088 E-score
17,ATTGGTCA,-0.0808 E-score
18,CGCCAATA,0.0986 E-score
19,CCCCTAAC,-0.0738 E-score
20,AACTCTCC,-0.081 E-score
21,AAGGTACC,-0.225 E-score
22,AAAAAACA,-0.295 E-score
23,AGTTTCAA,-0.116 E-score
24,GAAACGCC,-0.15 E-score
25,ATATTTAA,0.0464 E-score

row,Sequence,binding signal
1,CACCATTA,0.102 E-score
2,CCATAGGC,-0.189 E-score
3,GTATGAAA,0.0498 E-score
4,CCGGACAA,-0.0267 E-score
5,AACCTATG,-0.0979 E-score
6,AAAGATGT,-0.255 E-score
7,GACCTCCC,-0.283 E-score
8,GCTAACAC,-0.0438 E-score
9,GAGCACAA,-0.149 E-score
10,AGATGGGG,0.0485 E-score
11,AAGTCTGA,-0.0159 E-score
12,AATTAACG,-0.144 E-score
13,CAGCGGTC,-0.181 E-score
14,CTGCACTC,-0.0714 E-score
15,CACGGCAA,-0.0875 E-score
16,CATCGACA,0.107 E-score
17,AGGGTGAG,-0.114 E-score
18,CTACGGAA,-0.2 E-score
19,TAATTTCA,-0.248 E-score
20,CAAGGTCC,-0.163 E-score
21,CCTTGGCA,-0.123 E-score
22,GCAAGTGA,0.113 E-score
23,AAGTTCGC,-0.364 E-score
24,AGCGATTC,0.0123 E-score
25,AATAGGCG,-0.0385 E-score

row,Sequence,binding signal
1,CTAGACAC,0.158 E-score
2,CTAAACTA,-0.176 E-score
3,ACTGAGGG,-0.108 E-score
4,CTGTTCCC,-0.163 E-score
5,ATGAGCGA,-0.0318 E-score
6,TGGGGTAA,0.203 E-score
7,CATGCGCC,-0.00213 E-score
8,AGTACCGG,0.125 E-score
9,GATCTCAC,0.317 E-score
10,AAAATCGG,-0.166 E-score
11,CTATGTGA,0.0843 E-score
12,ATCATCTC,0.371 E-score
13,CGCGTAAG,-0.0928 E-score
14,GCTCCTTA,0.00598 E-score
15,CATTGTCC,-0.179 E-score
16,CAGCCAGC,-0.198 E-score
17,CCCTCGAG,0.0391 E-score
18,CGTAGGCC,-0.00105 E-score
19,CTCGAATA,-0.0369 E-score
20,GGGGTGTA,0.387 E-score
21,CAAGTGGC,-0.173 E-score
22,AGGGGCAA,-0.0867 E-score
23,GAGAGGCC,-0.346 E-score
24,CGGAGGAC,-0.0321 E-score
25,ATGGTGAA,0.0874 E-score

row,Sequence,binding signal
1,ATTCCCAA,-0.194 E-score
2,CGAATTCC,0.0515 E-score
3,GTCTGCTA,-0.0173 E-score
4,CAGCGCAA,-0.0757 E-score
5,CGTGGGAG,0.0444 E-score
6,GTGCAAAC,-0.177 E-score
7,CAAGACAC,0.0599 E-score
8,AGGTGTTC,0.14 E-score
9,CCGCCGTA,-0.0142 E-score
10,CATGAGTA,0.0448 E-score
11,CGTTATCC,0.126 E-score
12,CCTATACG,0.153 E-score
13,TATGCCGA,0.141 E-score
14,GGACATCC,-0.0405 E-score
15,AAAGAGAA,-0.12 E-score
16,ACCACCTC,-0.0851 E-score
17,AACAGTGT,-0.18 E-score
18,AGATAAGC,-0.152 E-score
19,GCCTCAAA,-0.152 E-score
20,CTATGATA,0.394 E-score
21,GTATTATA,0.377 E-score
22,ACAATCGC,0.101 E-score
